These are yes or no findings as the source states them, for the method shown. Binding seen in cells or lysates may run through a third protein. Some results given as binding are weak or reduced against the parent protein; the word gives no strength. Sequences can lack the tags named with a protein.
Assays:
Test in all cases: pull-down; data not shown: GST-ErbB-3 deletion mutants 665-1241, 665-1120, 665-931, 665-822 tested for binding to in vitro translated Ebp1 (grades in the diagram of Figure 4A); only the target purified
[1] = target: T1, GST-erbB3 (aa 665-1241) (rat) (UniProt Q62799)
T1 sequence: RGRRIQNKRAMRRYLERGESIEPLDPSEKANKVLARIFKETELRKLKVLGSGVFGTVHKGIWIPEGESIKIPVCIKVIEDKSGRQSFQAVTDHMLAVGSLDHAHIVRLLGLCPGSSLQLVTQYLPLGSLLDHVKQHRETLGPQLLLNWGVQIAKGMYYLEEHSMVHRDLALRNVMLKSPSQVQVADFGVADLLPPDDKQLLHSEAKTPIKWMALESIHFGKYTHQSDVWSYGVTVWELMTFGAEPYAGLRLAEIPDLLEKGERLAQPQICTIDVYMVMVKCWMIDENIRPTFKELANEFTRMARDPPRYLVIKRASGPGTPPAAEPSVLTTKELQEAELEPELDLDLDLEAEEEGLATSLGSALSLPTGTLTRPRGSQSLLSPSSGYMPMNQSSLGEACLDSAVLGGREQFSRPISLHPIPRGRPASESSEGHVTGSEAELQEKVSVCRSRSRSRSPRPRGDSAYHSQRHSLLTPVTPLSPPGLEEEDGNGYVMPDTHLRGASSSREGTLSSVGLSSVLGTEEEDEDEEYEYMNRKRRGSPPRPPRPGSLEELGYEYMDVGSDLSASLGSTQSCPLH

[2] = target: T2, GST-erbB3 (aa 665-822) (rat) (UniProt Q62799)
T2 sequence: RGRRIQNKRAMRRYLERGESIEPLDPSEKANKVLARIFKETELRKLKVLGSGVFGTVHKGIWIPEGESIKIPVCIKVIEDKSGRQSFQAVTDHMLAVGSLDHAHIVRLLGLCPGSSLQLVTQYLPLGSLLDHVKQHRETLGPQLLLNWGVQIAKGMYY

[3] = target: T3, GST-erbB3 (aa 665-931) (rat) (UniProt Q62799)
T3 sequence: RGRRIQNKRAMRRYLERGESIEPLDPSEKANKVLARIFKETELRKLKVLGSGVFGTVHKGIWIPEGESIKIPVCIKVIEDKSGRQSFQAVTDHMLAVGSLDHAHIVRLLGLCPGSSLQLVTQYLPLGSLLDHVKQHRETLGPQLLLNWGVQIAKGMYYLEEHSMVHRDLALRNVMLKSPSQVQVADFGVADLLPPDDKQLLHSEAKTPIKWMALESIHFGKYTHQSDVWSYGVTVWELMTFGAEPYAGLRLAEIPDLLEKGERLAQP

[4] = target: T4, GST-erbB3 (aa 665-1120) (rat) (UniProt Q62799)
T4 sequence: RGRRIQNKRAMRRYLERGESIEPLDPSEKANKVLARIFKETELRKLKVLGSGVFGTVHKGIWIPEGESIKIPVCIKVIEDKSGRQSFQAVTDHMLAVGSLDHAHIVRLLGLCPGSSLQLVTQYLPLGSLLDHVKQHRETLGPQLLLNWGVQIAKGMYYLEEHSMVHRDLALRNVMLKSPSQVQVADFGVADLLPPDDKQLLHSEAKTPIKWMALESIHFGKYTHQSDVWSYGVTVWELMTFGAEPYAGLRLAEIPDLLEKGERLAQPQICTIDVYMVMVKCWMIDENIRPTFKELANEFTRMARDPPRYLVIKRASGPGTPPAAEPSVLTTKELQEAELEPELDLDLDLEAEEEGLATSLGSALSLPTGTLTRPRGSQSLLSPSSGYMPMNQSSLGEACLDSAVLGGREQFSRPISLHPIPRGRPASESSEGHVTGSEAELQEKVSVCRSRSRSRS

Measured: binding

B1: 35S-labelled in vitro translation product of pBK/Ebp1 (amino acids 1-373 of Ebp1) (domain or fragment, UniProt Q9UQ80 1-373)
chain: MSGEDEQQEQTIAEDLVVTKYKMGGDIANRVLRSLVEASSSGVSVLSLCEKGDAMIMEETGKIFKKEKEMKKGIAFPTSISVNNCVCHFSPLKSDQDYILKEGDLVKIDLGVHVDGFIANVAHTFVVDVAQGTQVTGRKADVIKAAHLCAEAALRLVKPGNQNTQVTEAWNKVAHSFNCTPIEGMLSHQLKQHVIDGEKTIIQNPTDQQKKDHEKAEFEVHEVYAVDVLVSSGEGKAKDAGQRTTIYKRDPSKQYGLKMKTSRAFFSEVERRFDAMPFTLRAFEDEKKARMGVVECAKHELLQPFNVLYEKEGEFVAQFKFTVLLMPNGPMRITSGPFEPDLYKSEMEVQDAELKALLQSSASRKTQKKKKKK
modifications: 35S-labelled
binds: [1] | [2] | [3] | [4]
